Consider 44 compounds from ChEMBL document CHEMBL4888484, “Replenishing the malaria drug discovery pipeline: Screening and hit evaluation of the MMV Hit Generation Library 1 (HGL1) against asexual blood stage Plasmodium falciparum ,using a nano luciferase reporter read-out” (2022).

Molecules are shown by their SMILES. In all, about 150,000 compounds went through this assay and about 540 (0.36%) showed an effect of 50% or more. The list shows a part of the results.

A word on the % Inhibition: it is the change of the read-out against control, counted positive when it falls.

The experiment relates to Plasmodium falciparum. Nature of the experiment: Primary screen in NF54 nanoGlo assay, in single point, at 2uM, 72h; a lower Z score goes with more inhibition. To be noted: timepoint 72 hour. The format is functional, Erythrocyte.
Turning to `CCc1ncsc1C(=O)N1CCCN(C)c2ccc(F)cc21`, the “% Inhibition” value was -15% and the Z score is recorded as 1.52.

Regarding `COc1ccccc1CNC(=O)[C@]1(C)Cn2nc(-c3ccccc3)cc2C(=O)N1c1ccc(F)cc1`, the “% Inhibition” value is on record as -10% and the Z score stood at 1.6.

For the compound `COCCn1c(-c2ncn(C)n2)nnc1N1CCCC(F)(F)C1`, the “% Inhibition” value is reported as -6% and the Z score is recorded as 0.85.

With `CC(C)N1CCC(NC(=O)CO)C1c1ccc(Cl)c(F)c1` (stereo not drawn), the “% Inhibition” value was 6% and the Z score is recorded as -0.76.

With `COc1cc(C)c(NC(=O)N(C)[C@@H]2CCC[C@@H]2N2CCC(OC)C2)c(C)c1C` (stereo partly drawn), the “% Inhibition” value is -6% and the Z score is recorded as 0.98.

As to `Cc1cc(=O)c(C(=O)NC2CCN(Cc3ccccc3)CC2)c(CC2CCCC2)n1C`, the “% Inhibition” value is 7% and the Z score is recorded as -0.81.

Take `O=C(O)c1cnc(NCC2CCN(Cc3ccncc3)CC2)c(Cl)c1`: the “% Inhibition” value is given as -4% and the Z score amounted to 0.39.

Turning to `CN(c1cccc(C(=O)NCCCN2CCOCC2)c1)S(C)(=O)=O`, the “% Inhibition” value was -6% and the Z score is 0.87.

Consider `Cc1ccncc1S(=O)(=O)N(C)C(C)(C)C#N`, for which the “% Inhibition” value is listed as -10% and the Z score is given as 1.11.

Take `O=C(O)Cc1cccc(NC(=O)C2C3Cc4ccccc4C32)c1` (stereo not drawn): the “% Inhibition” value was found to be 33% and the Z score is listed as -4.42.

Turning to `NC(=O)c1csc(N2CC(c3ccncc3)C2)n1`, the “% Inhibition” value is -1% and the Z score is recorded as 0.27.

Take `CCc1nnc(NC(=O)COCC2CC2)s1`: the “% Inhibition” value was -7% and the Z score was 0.9.

Regarding `CC(=O)c1ccc(CNc2ccnc(C(C)C)n2)nc1C`, the “% Inhibition” value is given as -21% and the Z score was determined as 3.26.

As to `CC1(C)CC(NC(=O)CCc2nc(-c3ccc4cc[nH]c4c3)no2)CC(C)(C)N1`, the “% Inhibition” value came to 0% and the Z score is -0.02.

For the compound `CC[C@H](C)[C@@H]1NC(=O)[C@H](Cc2ccc(OC)cc2)NC1=O`, the “% Inhibition” value is listed as -4% and the Z score worked out at 0.66.

For the compound `c1ccc(CNc2nc(-c3ccc4nsnc4c3)cs2)cc1`, the “% Inhibition” value is recorded as -1% and the Z score is on record as 0.22.

As for `Cc1cnc(N2CC(=O)N[C@@H](C)C2)nc1N(C)C`, the “% Inhibition” value is given as -6% and the Z score is listed as 1.16.

On to `CN(C)c1ccnc(N(C)C2CCC2O)n1` (stereo not drawn), for which the “% Inhibition” value is on record as -15% and the Z score was 1.86.

`COc1ccc(OC)c(Nc2c(-c3c[nH]c4ccccc34)nc3cnccn23)c1`: the “% Inhibition” value was -2% and the Z score came out at 0.3.

As to `CN(CC(=O)Nc1ncccn1)S(=O)(=O)c1ccc2c(c1)OCCCO2`, the “% Inhibition” value is reported as 33% and the Z score is given as -4.48.

As to `Cc1nc(Cc2nc(-c3cccc(OCCN(C)C)c3)no2)cs1`, the “% Inhibition” value is given as 10% and the Z score is reported as -0.99.

On to `CCS(=O)(=O)N1CCC2(CCO2)CC1`, for which the “% Inhibition” value is listed as -8% and the Z score is reported as 0.67.

As for `CCCCn1nc(C(=O)N2CCc3ccccc32)ccc1=O`, the “% Inhibition” value is recorded as -16% and the Z score is 3.11.

As to `C[C@@H]1CN(C(=O)c2nc3ccc(Cl)cn3c2CNC(C2CC2)C2CC2)C[C@H](C)O1`, the “% Inhibition” value was -15% and the Z score is given as 1.65.

For `Cn1nnc(CN2C[C@@H]3[C@H](C2)[C@H]3NC(=O)c2cccn(C(C)(C)C)c2=O)n1`, the “% Inhibition” value is reported as -10% and the Z score is recorded as 1.98.

On to `Cc1cc(C2OCCO2)c(C)cc1CN1CCC[C@@H]1CO`, for which the “% Inhibition” value was 0% and the Z score was -0.06.

With `Cn1nccc1-c1ccccc1CN1CCC(C)(C)S(=O)(=O)CC1`, the “% Inhibition” value is on record as -1% and the Z score was determined as 0.14.

Take `COc1ncnc(N)c1CNCC1(Cc2ccccc2)CC1`: the “% Inhibition” value is given as -4% and the Z score was 0.79.

For `CCN(CC(O)COC)CC1CC(c2ccc(Cl)cc2)=NO1` (stereo not drawn), the “% Inhibition” value worked out at 1% and the Z score was -0.14.

Consider `CN(Cc1ccccc1)C(=O)c1ccc(CS(=O)(=O)Cc2ccc(Cl)cc2)o1`, for which the “% Inhibition” value is listed as -6% and the Z score is given as 0.84.

With `OCCn1nc(C2(c3ccccc3)CC2)nc1Cc1ccc(F)cc1Cl`, the “% Inhibition” value is 11% and the Z score is -1.52.

On to `CO[C@H](C(=O)NCc1c(C(=O)O)sc2ccccc12)C1CC1`, for which the “% Inhibition” value is 9% and the Z score is recorded as -1.53.

With `CCCOc1ccccc1CNC(C)(C)C`, the “% Inhibition” value amounted to 4% and the Z score is recorded as -0.8.

Regarding `CCCCCN(C)S(=O)(=O)[C@H]1CCS(=O)(=O)C1`, the “% Inhibition” value is listed as -15% and the Z score is given as 1.75.

As to `Cc1nc(-c2ccc(NC(=O)[C@@H](F)C(F)(F)F)cc2)[nH]c1C`, the “% Inhibition” value stood at 22% and the Z score was -2.9.

As to `Cc1ccc(S(=O)(=O)N2CCN(C(=O)N3CCOCC3)C2)cc1`, the “% Inhibition” value is listed as -6% and the Z score stood at 0.91.

For `Cc1cc(NCCCN2CCOCC2)nc(N)n1`, the “% Inhibition” value is -9% and the Z score was 1.73.

On to `Cc1oc(-c2ccccc2)nc1CNC1(C(=O)O)CCCC1`, for which the “% Inhibition” value was -11% and the Z score turned out to be 1.31.

In the case of `CCOc1ncccc1CNC(=O)N1CCOC[C@@H]1CC(C)C`, the “% Inhibition” value was -3% and the Z score was 0.66.

In the case of `CCCc1[nH]nc(-c2ccc(C(F)(F)F)cc2)c1NC(=O)C1CCC1`, the “% Inhibition” value is listed as -6% and the Z score was 1.04.

For `O=C(c1cccc(S(=O)(=O)NCc2cc[nH]n2)c1)N1C[C@H]2CCC[C@@H]1C2`, the “% Inhibition” value is 2% and the Z score was -0.29.

For `O=S1(=O)[C@H](c2ccccc2)CCN1Cc1ccc(C(F)(F)F)cn1`, the “% Inhibition” value is -6% and the Z score came to 0.99.

With `CC[C@H](Oc1ccccc1F)C(=O)NCC1(N2CCN(C)CC2)CCCCC1`, the “% Inhibition” value is -2% and the Z score was 0.27.

Take `CN(C)c1cc(F)cc(N2C(=O)CNC2=O)c1`: the “% Inhibition” value worked out at 1% and the Z score is given as -0.08.
